Source: article PMC4336329 (PLoS ONE, 2015)
The whole screen tested about 310,000 compounds, of which about 2,200 (0.71%) showed an effect of 50% or more. Effects have a minus sign here. The list shows a part of the results.

Molecular target: human ether-à-go-go-related gene (hERG) potassium channel (human, UniProt Q12809)
Test: primary screen, population patch clamp on CHO cells stably expressing hERG

human ether-à-go-go-related gene (hERG) potassium channel, sequence (Q12809 whole entry, looked up): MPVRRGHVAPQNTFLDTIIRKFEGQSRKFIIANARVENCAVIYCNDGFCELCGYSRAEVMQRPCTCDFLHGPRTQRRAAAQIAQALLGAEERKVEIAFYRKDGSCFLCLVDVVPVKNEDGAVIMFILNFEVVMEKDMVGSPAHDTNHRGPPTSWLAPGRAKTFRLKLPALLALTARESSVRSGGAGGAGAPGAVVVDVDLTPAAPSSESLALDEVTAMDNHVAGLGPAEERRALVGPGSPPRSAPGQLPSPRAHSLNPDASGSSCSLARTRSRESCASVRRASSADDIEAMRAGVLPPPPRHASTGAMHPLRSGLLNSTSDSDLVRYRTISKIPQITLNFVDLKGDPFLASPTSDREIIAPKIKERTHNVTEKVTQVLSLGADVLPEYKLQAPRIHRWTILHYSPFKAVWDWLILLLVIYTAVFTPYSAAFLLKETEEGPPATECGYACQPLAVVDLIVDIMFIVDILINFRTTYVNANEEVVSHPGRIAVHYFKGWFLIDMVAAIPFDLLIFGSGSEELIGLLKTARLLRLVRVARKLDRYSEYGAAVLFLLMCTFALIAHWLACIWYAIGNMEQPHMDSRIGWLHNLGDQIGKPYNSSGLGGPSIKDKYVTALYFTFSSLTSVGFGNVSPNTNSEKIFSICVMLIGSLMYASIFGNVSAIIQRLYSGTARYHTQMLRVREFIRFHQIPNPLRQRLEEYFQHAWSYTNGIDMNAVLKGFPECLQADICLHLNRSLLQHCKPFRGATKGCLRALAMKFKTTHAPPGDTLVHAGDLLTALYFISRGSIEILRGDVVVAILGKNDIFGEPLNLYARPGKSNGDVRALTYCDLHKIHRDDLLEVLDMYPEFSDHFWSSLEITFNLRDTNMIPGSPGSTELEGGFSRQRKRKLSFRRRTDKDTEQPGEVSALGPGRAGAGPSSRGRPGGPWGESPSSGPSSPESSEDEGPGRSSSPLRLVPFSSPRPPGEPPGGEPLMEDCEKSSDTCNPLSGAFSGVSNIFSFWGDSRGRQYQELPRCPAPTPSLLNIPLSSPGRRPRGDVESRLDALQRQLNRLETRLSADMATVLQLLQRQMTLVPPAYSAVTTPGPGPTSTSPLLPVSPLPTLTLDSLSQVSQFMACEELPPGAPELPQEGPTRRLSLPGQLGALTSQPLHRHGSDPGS

Row | Structure (SMILES) | hERG current change (%, negative = inhibition) at 1uM
1 | O=C(CSc1nc2cc3ccccc3cc2[nH]1)Nc1ccc(F)cc1 | 5.08%
2 | CS(=O)(=O)N(CC(=O)N1CCN(c2ccc(F)cc2)CC1)c1ccc(F)c(Cl)c1 | -16%
3 | CCc1nc(CN2CCN(c3ccc(C(F)(F)F)cn3)CC2)c(C)[nH]1 | -29.6%
4 | CCN1CCN(C(=O)CN(c2ccc(C)cc2)S(C)(=O)=O)CC1 | 13.4%
5 | O=C(NC1CCS(=O)(=O)C1)c1ccc(S(=O)(=O)NCC2CCCO2)cc1 (stereo not drawn) | -1.85%
6 | CCOC(=O)c1ccc[n+](CC(=O)c2ccccc2)c1.[Br-] | 8.09%
7 | Nc1ccc(S(=O)(=O)NNC(=O)C(=O)NNc2ccccn2)cc1 | 7.29%
8 | COC(=O)c1cccnc1NC(=S)NNC(=O)c1ccncc1 | 5.32%
9 | Cc1ccc(CNC(=O)CCS(=O)(=O)c2cccc3nonc23)cc1 | 8.61%
10 | O=C(NCc1ccccc1F)C1CCCN1C(=O)Nc1ccc(F)cc1 (stereo not drawn) | 8.73%
11 | CCCc1cc(=O)oc2cc(OCc3cc(OC)c(OC)c(OC)c3)c(Cl)cc12 | 15.7%
12 | CC1=CC2=NC(=O)CC(C)(C(=O)N(CC(=O)NC3CCCC3)Cc3ccccc3)N2C=C1 (stereo not drawn) | 1.71%
13 | COc1cccc(C2Nc3cccc4cccc(c34)N2)c1 | 2.68%
14 | Cc1nnc(SCC(=O)NCc2ccccc2)n1-c1ccccc1 | 20.7%
15 | O=C1CSC(c2ccc([N+](=O)[O-])cc2)N1C1CCCCC1 (stereo not drawn) | -13%
16 | CN(C)c1ccc(/C=C(/NC(=O)c2ccccc2Cl)C(=O)NCCN2CCOCC2)cc1 | 9.12%
17 | Fc1ccc(Nc2c(-c3ccco3)nc3ccccn23)cc1 | -1.03%
18 | O=C(COc1ccc(F)cc1Cl)Nc1nc(-c2ccccn2)cs1 | 9.91%
19 | COc1ccc(N(C(C)C(=O)Nc2cccnc2)S(C)(=O)=O)cc1 (stereo not drawn) | 14.6%
20 | Cc1ccc(S(=O)(=O)NCC(=O)OC(C(=O)c2ccccc2)c2ccccc2)cc1 (stereo not drawn) | 9.46%
21 | CC(O)CNc1nc2ccccc2n1CC(=O)NCCc1ccc(Cl)cc1 (stereo not drawn) | 7.42%
22 | COc1cccc(N2CCN(C(=O)C3CCN(S(=O)(=O)c4cccs4)CC3)CC2)c1 | 12.1%
23 | CN(C)CCN(C(=O)CCS(=O)(=O)c1ccccc1)c1nc2cc3c(cc2s1)OCO3.Cl | 14.4%

Row | Structure (SMILES) | hERG current change (%, negative = inhibition) at 1uM
24 | c1ccc(-c2nnc(-c3ccco3)o2)cc1 | 6.99%
25 | S=C(NCc1ccccc1)Nc1cccc(Cl)c1 | -1.34%
26 | COc1ccc(NC2CCN(C3CC(=O)N(c4ccc(F)c(Cl)c4)C3=O)CC2)cc1 (stereo not drawn) | -16.2%
27 | CCN(CC)CCn1c2ccccc2c2n[nH]c(=S)nc21 | 8.96%
28 | CC1=C(C#N)C(c2cccnc2)C2=C(N1)c1ccccc1C2=O (stereo not drawn) | 12.1%
29 | N#C/C(=C/c1ccc(C(=O)O)cc1)C(=O)NCc1ccccc1 | -1.61%
30 | O=C(Oc1cccc(C(=S)N2CCCCC2)c1)c1ccccc1 | 12.1%
31 | CCN(CC(=O)NCc1ccc(Cl)cc1)C(=O)CSCC(=O)Nc1ccc(C)cc1 | -22.6%
32 | O=C1C=C(c2cccc(CO)c2)C[C@@H](c2ccc(F)cc2)C1 | -2.11%
33 | Cn1c(-c2ccc(C(C)(C)C)cc2)n[nH]c1=S | 11.7%
34 | NS(=O)(=O)c1cccc(-n2cnnn2)c1 | 4.15%
35 | CCOc1cccc(N2C(=O)CC(n3cnc4ccccc43)C2=O)c1 (stereo not drawn) | 11%
36 | Nc1nc(SCc2nnc(SCC(=O)O)n2-c2ccccc2)nc2sc3c(c12)CCCC3 | 2.72%
37 | Cc1cccc(/C=N/NC(=O)c2cccc([N+](=O)[O-])c2)n1 | 9.21%
38 | NC(=S)Nc1ccc2cn[nH]c2c1 | 10.1%
39 | Cc1ccc(S(=O)(=O)Nc2nc(C)c(C)s2)cc1 | 9.1%
40 | COCCNC(=O)C1CC(c2ccc(C(F)(F)F)cc2)=NO1 (stereo not drawn) | 9.26%
41 | COc1ccc(CCNC(=O)CCC(=O)Nc2nnc(C(C)C)s2)cc1OC | 6.11%
42 | Cc1cccc(C(=O)Nc2ccc(O)c3c(=O)cc(-c4ccccc4Cl)oc23)c1 | 6.44%
43 | Cc1ccccc1Nc1nc(N)nc(COC(=O)c2ccccc2)n1 | 21%
44 | COC(=O)C1=C(N)Oc2cc(C)oc(=O)c2C1c1cccnc1 (stereo not drawn) | -3.81%
45 | CC(OC(=O)c1nn(C)c(=O)c2ccccc12)C(=O)NC1CCCCC1C (stereo not drawn) | -0.613%
